From PubChem BioAssay AID588855 (National Center for Advancing Translational Sciences (NCATS), 2011)
Hit rate of the full screen: of about 410,000 compounds, about 5,000 (1.2%) were called active. The shares of active, inactive and inconclusive entries below differ from those in the screen. Calls follow the shape of the dose curve; as a rule, active = well fitted inhibition curve with a large enough effect; inconclusive = small, poorly fitted or top-dose-only effect; inactive = no such curve, though single readings can be large or run the other way. Potencies beside an inconclusive call are fits to weak or partial responses and may not hold up.

Assay: qHTS for Inhibitors of TGF-b; also: nearly all actives have a fitted effect of over 65% in size
Conditions: HepG2 CAGA-GFP TGF-b/SMAD3 reporter, GFP fluorescence, 18 h, TGF-beta stimulated, 500 pg/mL final; series mostly up to 46.1 µM; activity, negative = inhibition: at the top concentration
Method in brief: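 Inhibition was scored as loss of TGF-beta-induced (500 pg/mL final, 18 hours, 37 degrees C) GFP in HEPG2 cells carrying a CAGA-GFP reporter, in DMEM with 1% FBS. Well GFP was summed per cell; Activity was normalised to unstimulated and stimulated DMSO wells, then concentration-response fitting.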
% is scaled to controls: 0 for no effect and ±100 for the full control effect; potency is read from the fitted curve at half-maximal effect; tags tell the direction and shape of the fitted curve.

Compound | activity, negative = inhibition | Potency
COc1ccc(CNC(=O)C[C@@H]2C[C@H]3c4cc(NC(=O)C5CCC5)ccc4O[C@H]3[C@@H](CO)O2)cc1 | inactive: 15% | –
C[C@@H]1NC(=O)[C@@]2(C)[C@@H](c3ccccc3)[C@H]3COc4ccc(Cl)cc4[C@@H]3N2C1=O | – | inconclusive: 0.794 µM [inhibitor, full curve, poor fit]
COc1cc2c(c3oc(-c4ccccc4)cc(=O)c13)C=CC(C)(C)O2 | – | inconclusive: 17.8 µM [inhibitor, single point]
O=S(=O)(c1ccccc1)n1cc(-c2cccc3nccn23)c2ccccc21 | – | inconclusive: 25.1 µM [inhibitor, single point]
Cc1ccc(C)c(Cn2nnc(C(=O)NCc3ccc(Cl)cc3Cl)c2N)c1 | inactive: -12.3% | –
Cc1ccc2nc(N/N=C/c3ccco3)cc(C)c2c1 | – | inconclusive: 12.6 µM [inhibitor, partial curve, poor fit]
C=CCc1ccccc1OCC(O)CN1CCN(c2ccc(C)cc2)CC1 (stereo not drawn) | – | inconclusive: 25.1 µM [inhibitor, single point]
O=C(/C=C/C(Cl)(Cl)Cl)Nc1ccc(Cl)cc1 | – | inconclusive: 12.6 µM [inhibitor, partial curve, poor fit]
CCc1ccc2[nH]c(C(=O)Nc3ccc4c(c3)OCO4)cc2c1 | inactive: 0.0039% | –
CC(=O)NCCNc1nc2cc(-c3cc(F)ccc3C)sc2c(=O)n1C | inactive: -7.4% | –
CN(Cc1ccccc1)C(=O)c1ccc(NC(=O)Cc2cccc(NC(=O)C3CCN(C(=O)C4CCCC4)CC3)c2)cc1 | – | inconclusive: 15.8 µM [inhibitor, single point]
CCc1ccccc1N(C)S(=O)(=O)c1ccc2[nH]cc(C(=O)O)c(=O)c2c1 | – | inconclusive: 6.31 µM [inhibitor, single point]
Nc1ncnc2nc(SCc3ccc(Cl)cc3Cl)[nH]c12 | – | inconclusive: 35.5 µM [inhibitor, single point]
O=C(Nc1ccc(Nc2ccccc2)cc1)c1ccco1 | inactive: 7.65% | –
O=C(c1ccc(CS(=O)Cc2ccc(Cl)cc2)o1)N1CCN(c2ccc(F)cc2)CC1 (stereo not drawn) | – | inconclusive: 35.5 µM [inhibitor, partial curve, poor fit]
COc1ccc(N(CC(=O)NCc2ccc(F)cc2)S(=O)(=O)c2c(C)n[nH]c2C)cc1 | – | inconclusive: 12.6 µM [inhibitor, single point]
Cc1cc(OCC(=O)NCc2ccncc2)ccc1Cl | – | inconclusive: 35.5 µM [inhibitor, single point]
COc1ccc(S(=O)(=O)N(Cc2ccc(OC)c(OC)c2)Cc2ccco2)cc1 | – | inconclusive: 7.94 µM [inhibitor, partial curve, poor fit]
O=C(Nc1cc(C(F)(F)F)ccc1Cl)c1cc2nc(-c3ccc4c(c3)OCO4)cc(C(F)(F)F)n2n1 | inactive: 0.776% | –
CCOc1ccc(/C=N/NC(=O)c2cc(-c3cccn3C)n[nH]2)cc1 | inactive: 6.85% | –
O=C(NCCN1CCc2ccccc2C1)Nc1ccc([N+](=O)[O-])cc1 | – | inconclusive: 10 µM [inhibitor, partial curve, poor fit]
O=C(NCC1CC1)c1csc([C@@H]2O[C@H](CO)[C@H](O)[C@H](O)[C@H]2O)n1 | inactive: -2% | –

Compound | activity, negative = inhibition | Potency
COc1ccc(-c2nc(Cn3c(SCc4ccc(F)cc4)nc4ccncc43)c(C)o2)cc1OC | – | inconclusive: 35.5 µM [inhibitor, single point]
Cc1ccc(S(=O)(=O)N(C)c2ccc(C(=O)NCC(c3ccco3)N3CCCC3)cc2)cc1 (stereo not drawn) | inactive: -8.78% | –
Cc1ccc(-c2nn(-c3ccccc3)cc2/C=N/NC(=O)c2ccc(Br)o2)cc1 | – | inconclusive: 35.5 µM [inhibitor, single point]
CC1(C)C2CCC1(C)C(OC(=O)c1ccc(O)cc1)C2 (stereo not drawn) | – | inconclusive: 22.4 µM [inhibitor, single point]
O=C(NCc1cccc(F)c1)C1=Cc2cc(Br)ccc2OC1 | – | inconclusive: 28.2 µM [inhibitor, single point]
O=C(NC(=C(Cl)Cl)S(=O)(=O)c1ccc(Cl)cc1)c1ccccc1 | – | inconclusive: 35.5 µM [inhibitor, single point]
COc1ccccc1N(C(C)=O)C1=C(Cl)C(=O)c2ccccc2C1=O | inactive: -17.7% | –
Cc1ccc(-n2ccnc(NCc3ccccc3)c2=O)cc1C | – | inconclusive: 5.01 µM [inhibitor, full curve]
CCOC(=O)c1ccccc1NC(=O)Cn1c(-c2nonc2N)nc2ccccc21 | – | inconclusive: 11.2 µM [inhibitor, partial curve, poor fit]
O=S(=O)(Nc1cccc(-c2cn3c(n2)SCC3)c1)c1ccccc1 | inactive: 24.6% | –
CCc1nc(CN2CCCC(C(=O)c3ccc4c5c(cccc35)CC4)C2)c(C)[nH]1 (stereo not drawn) | – | inconclusive: 35.5 µM [inhibitor, single point]
CCCCNS(=O)(=O)c1ccc2nc(NC(=O)c3cccnc3)sc2c1 | inactive: 28.5% | –
O=[N+]([O-])c1ccc(N2CCN(Cc3ccccc3)CC2)c2c1no[n+]2[O-] | – | active: 3.16 µM
CCOc1c(Cl)cc(C(=O)Nc2cccc(C(=O)O)c2)cc1Cl | – | inconclusive: 35.5 µM [inhibitor, single point]
COc1cc(/C=C(\C#N)c2nc3ccc(C)cc3[nH]2)cc([N+](=O)[O-])c1O | – | inconclusive: 35.5 µM [inhibitor, single point]
Cc1nc(-c2ccncc2)sc1C(=O)Nc1ccc(Cl)cc1 | inactive: 1.3% | –
Cc1ccc(S(=O)(=O)N2CCCCC2C(=O)N(C)c2ccccc2)cc1 (stereo not drawn) | inactive: -5.8% | –
Cc1ccc(CNC(=O)c2ccc(CSCc3ccc(Cl)cc3)o2)cc1 | – | inconclusive: 12.6 µM [inhibitor, partial curve, poor fit]
CCOc1cc(Br)cc(/C=C2\SC(=Nc3ccccc3)NC2=O)c1O | – | active: 10 µM
CSc1cccc(-n2cc(-c3ccc4c(c3)OCO4)[nH]c2=O)c1 | inactive: -14.7% | –
Cc1c(-c2ccccc2)n[nH]c1C(=O)N=Nc1c(O)[nH]c2ccccc12 | – | inconclusive: 2.82 µM [inhibitor, full curve]
